In publication PMC12136788:
The other results are listed elsewhere or left out.

T1: UNK ZnF1-3 (human, UniProt Q9C0B0 31-174)
T1 sequence: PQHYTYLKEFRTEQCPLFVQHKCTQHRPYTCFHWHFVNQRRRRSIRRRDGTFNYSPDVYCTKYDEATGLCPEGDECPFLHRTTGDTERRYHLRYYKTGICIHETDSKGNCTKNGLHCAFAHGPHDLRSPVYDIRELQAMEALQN

B1: chr7:54823571:54823572:-_ENSG00000132432_ENST00000352861|hu_mus|FALSE|FALSE (ssRNA)
RNA: GGGAGUUCUACAGUCCGACGAUCUCCCAUGAUAGCAAAUCCUAUAGCUGUAGCCAUGGCAAUCUUCUGGAAUUCUUUUCUGUCGGGUUUGGUGCAUCUUUUAACCAGCCGAAUUGAGUCCUUUACAAACUGCCGGCUGGGCUCCAACAGAGGAUUGAGCAUCA
B2: chr2:131005039:131005040:-_ENSMUSG00000068267_ENSMUST00000089510|mus_mus|motif|central (ssRNA)
RNA: GGGAGUUCUACAGUCCGACGAUCGUACCACAGGCUGGUCUCGGUGGCGCUGAACACGUCCUGCGAGGCGUAGCCCUCAGCGGCCGACGGCGGCUGCUCCUCCCUCGUGUGCCAGCCGGGUGUGCUCCCACCGCUGCCCUCGGACAACAGAGGAUUGAGCAUCA
B3: chr16:94690422:94690423:+_ENSMUSG00000040785_ENSMUST00000117648|mus_mus|motif|central (ssRNA)
RNA: GGGAGUUCUACAGUCCGACGAUCAUGUAUUCAAGGUUCACAUGUCUGUAUUUGCCACUGCCUACAGGUCACUAAAAAUACCGGGUUUUUGAAUAGUUUCUAAUACAGUUAGCUUGUUUUCAGGCCACAUUACAAGAUUGCAUGCAACAGAGGAUUGAGCAUCA
B4: chr14:78183846:78183847:+_ENSG00000119705_ENST00000557342|hu_hu|hu_hu_hu_mus_False|78_98 (ssRNA)
RNA: GGGAGUUCUACAGUCCGACGAUCUCUCAGAAAUCUUUCUUUCUUUUAUGUUUGAGCUGUUUGCGGAGCCUUUGCUCUUUGAGCUUGAACGUGGAUCUAUGGGAGGGAAAGCACUGUCAGAAAAGGUAAUUUUUUUUUUAAAGACAACAGAGGAUUGAGCAUCA
B5: chr6:41757443:41757444:+_ENSG00000214736_ENST00000398881|hu_mus|hu_hu_hu_mus_False|68_98 (ssRNA)
RNA: GGGAGUUCUACAGUCCGACGAUCGAACCGUGCAGAGACCAGAGAAUAGCCGACACUGGGGGAUGGGGGAACAAAAGGGGGGGGUUCAGGCAAGGAGAGGGAGUCAACUUCAGCUGCCACUCAGGUAGGAUCUUGUGGUCACAGCAACAGAGGAUUGAGCAUCA
B6: chr16:13687521:13687522:+_ENSMUSG00000022684_ENSMUST00000023365|mus_hu|motif|central (ssRNA)
RNA: GGGAGUUCUACAGUCCGACGAUCGGCUGCAAGACUUUGGACUAUGUCAUUAUUCUGCUGAAUGUCUUCAAAUCUCAGUCGGAUGGCAUCAGGAAAUAACUUUUCAAUGGCAUCCCUGAGGAGAAUACUGACUUUGGGGAAACCCAACAGAGGAUUGAGCAUCA
B7: chr3:112251601:112251602:-_ENSG00000144848_ENST00000283290|hu_mus|FALSE|FALSE (ssRNA)
RNA: GGGAGUUCUACAGUCCGACGAUCAGGAUAGACUCUAUAGCCUCUCCACUACAUUGUGAAGUGUCUUGUGUAGUCAUAUUCUAUUGUUGGAAUGACAGCUUGAACAAAUUUCAAAAAAAUUAAAAGAUACAUAUGAACACCAAGCAACAGAGGAUUGAGCAUCA
B8: chr9:95013113:95013114:-_ENSG00000196305_ENST00000443024|hu_hu|hu_hu_hu_mus_False|1_58 (ssRNA)
RNA: GGGAGUUCUACAGUCCGACGAUCCUCAGUCAGAAAGGGCGUGUAAGGGGCCAUCAGUCUGCACAGAGAAAGCAGGACACUAAACAAUGUCUCCAGAGCCAUGACACAGUCUUCCACCCCACUCUCACCCUUUAACCUUCUGCGCAACAGAGGAUUGAGCAUCA
B9: chr5:134235298:134235299:+_ENSG00000113621_ENST00000507024|hu_hu|motif|central (ssRNA)
RNA: GGGAGUUCUACAGUCCGACGAUCUGUCCUGGAAUUAGCCACCGAAUACUCUCAGUUCGAAUGGUAGCAUACAUAAUAAAACGGAUUAAAAAGAAUAAGGAAAAUACAAGCAACCAGUCCACACUUUUUAUCAAAGUGCUGGGACAACAGAGGAUUGAGCAUCA
B10: chr2:225400320:225400321:-_ENSG00000036257_ENST00000409096|hu_hu|motif|central (ssRNA)
RNA: GGGAGUUCUACAGUCCGACGAUCGUUCUCCACAUUAUUUUGUUGUACAUACACACGGUCCAUGUACAUUAGUAUGUCUCGGAUCAUCACCAUAGCUGUUUGAUGAUCAUUCCAAGCUUGAUUUAGCGUUUGAAGAAAGUUGUUCAACAGAGGAUUGAGCAUCA
B11: chr7:141441981:141441982:+_ENSG00000106028_ENST00000265304|hu_mus|hu_hu_hu_mus_False|8_48 (ssRNA)
RNA: GGGAGUUCUACAGUCCGACGAUCCUCAUGUCUUACAAACUGACGAAAUACCUGUAACACAGGUCUUCGAAACAUGGCUUCUGUUUUCUUUUCUUACUAAUCUUUAGGCUUUUCCUAAAGGAAAGAAUAACCCGAGCAAAAUGACAACAGAGGAUUGAGCAUCA
B12: chr13:74460584:74460585:-_ENSMUSG00000021577_ENSMUST00000022062|mus_hu|FALSE|FALSE (ssRNA)
RNA: GGGAGUUCUACAGUCCGACGAUCGUCUCAUCAGUAGGAGCGAAUGGCUGGCGGGACGGUGGCACAGUCAGCCUCGUUCAAAGUUUUGUCGAUCACGGGUCUAUAUUCCAGAGUGACCUUCCCAGUGCCAACGUCCACAUAGGACAACAGAGGAUUGAGCAUCA
B13: chr8:146017231:146017232:-_ENSG00000161016_ENST00000531975|hu_mus|FALSE|FALSE (ssRNA)
RNA: GGGAGUUCUACAGUCCGACGAUCGAACUGUCCAGUGUGGAUCCCCUCCGCUGCGAUGAACAGCUCUGUCCGCUUCUUGAAUCGGUAGGGAUCCCGAAAGACGACUUUGGCGAGGGGAGCGCCGCGGCCAGGGUCAUGAAUGAUCAACAGAGGAUUGAGCAUCA
B14: chr1:68170538:68170539:-_ENSG00000172380_ENST00000370982|hu_hu|FALSE|FALSE (ssRNA)
RNA: GGGAGUUCUACAGUCCGACGAUCUUAGGAUACUCUUUACUUUUUGUACAAUAACGAUAUGAAAGGAAUUUUUUAUUCUACCUAUACACAGCUCAAAAUAAAGGUAUAACUUCUGGAACUGAGAAACUGAUGGUAUGGAGAGAGCAACAGAGGAUUGAGCAUCA
B15: 36856437_36858578_1275_CDS_ENSMUSG00000022837_ENSMUST00000023535|mouse|control|control (ssRNA)
RNA: GGGAGUUCUACAGUCCGACGAUCUUUCUCUUCCAUUUCCCUAUUGUACUUCUCCACUUGACCUGGAUGAAUUAUUUCAAGCAUGUUCAAGCGUGACUCUCGUGAAAGCCUCAUUGCUCUCUGUCUUUGAAGUUGCAAUUUUAACAACAGAGGAUUGAGCAUCA
B16: chr4:123027775:123027776:-_ENSMUSG00000028649_ENSMUST00000154824|mus_hu|FALSE|FALSE (ssRNA)
RNA: GGGAGUUCUACAGUCCGACGAUCUUAUCUUGCUGAGAUAGCAAGUCAAGUUUAUAAAGAAGAUGCAUUUAGGAAUAAUCCUAAAAGAUAAAGCAGGUUUACAACCCUGCACCGCGCAGAAACCCUAUUAAUAGGCUUUUUUUUCAACAGAGGAUUGAGCAUCA
B17: chr4:65274301:65274302:+_ENSMUSG00000051675_ENSMUST00000050850|mus_hu|FALSE|FALSE (ssRNA)
RNA: GGGAGUUCUACAGUCCGACGAUCGUGCAGAAGCUUGGGACGCAGCUGCUCUUCUGUGAAGGACUCCAUGCAGAUGGGGCAUUCUAGCACUUCCCGGAGGGCAUCCAGGUUCAGGUGAGAAGCUGCUGCUGCAGCCAUUGCUCUCAACAGAGGAUUGAGCAUCA
B18: chr1:65217810:65217811:-_ENSMUSG00000025950_ENSMUST00000097709|mus_hu|FALSE|FALSE (ssRNA)
RNA: GGGAGUUCUACAGUCCGACGAUCAGCUUCUGCAGCAUCCUUGGUGACUUGGUCGUUGGUGGCAUCACGAUUCUCUAUGCCUAAAUCAUAGCUAUGUAGAUCCAAUUCCACGUAGGGAAAAAUGAGUUUCUCUUUAAUCAAUUCCAACAGAGGAUUGAGCAUCA
B19: chr4:115894766:115894767:+_ENSMUSG00000028698_ENSMUST00000030464|mus_hu|mus_mus_mus_hu_True|98_108 (ssRNA)
RNA: GGGAGUUCUACAGUCCGACGAUCUUCACACGGAAAUGUACUUGGGGGUUUUCCAACGGCCAGUACCAGUCCGGCCAAACUACCCGAACAGGGUCCUCCCCCUCUCUCCUACAGAACACAACAAAAUGCCCCCGAACUUUCAAGCAACAGAGGAUUGAGCAUCA
B20: chr3:196311160:196311161:+_ENSG00000174013_ENST00000440469|hu_hu|FALSE|FALSE (ssRNA)
RNA: GGGAGUUCUACAGUCCGACGAUCCUGUCUGUCAUCACAAGAAAGCCACUGUCAUCCGUCCAAAGGUUUUCCAAGGUAAACCAAAGUCACUUCUGUGUUGCCAUAUACAGCAGAAACUGCUGGGUAUAAGCAGACCUUUGGAAGCAACAGAGGAUUGAGCAUCA
B21: 55281810_55284326_1425_CDS_ENSMUSG00000027797_ENSMUST00000054237|mouse|control|control (ssRNA)
RNA: GGGAGUUCUACAGUCCGACGAUCUCCUAUUGUUCUCCCGACUUUGUAUCUCUCUGUUAUUGUGGCAGGAAUCUGGAAGCCUUCCUCAGACUCUUCCCUCCUCCAUCCCCUCUGCAAGCUGUGCCUUCUCCCAAGCUCAUCACCCAACAGAGGAUUGAGCAUCA
B22: chr15:63762776:63762777:-_ENSMUSG00000022378_ENSMUST00000164532|mus_hu|FALSE|FALSE (ssRNA)
RNA: GGGAGUUCUACAGUCCGACGAUCGUUAAUUUAAACAUUUUCAUUUUGGUUGCACAUGAAAAAGGCGGCAGUAGAAAAUAAAGUCAUUGAGGGUUUUUAAAUAGCAGAAUAGGCAGUUUUGCCAUGCAGGAGAAGCAAUAUUAACAACAGAGGAUUGAGCAUCA

target: T1, UNK ZnF1-3; experiment: nsRBNS (natural sequence RNA bind-n-seq); RBNS binding buffer (assumed for nsRBNS): 25 mM Tris pH 7.5, 150 mM KCl, 3 mM MgCl2, 0.01% Triton X-100, 500 ug/ml BSA, 20 U/ml SUPERase-In, 4 C; UNK is unkempt and MSI1 is Musashi-1; names of the RNAs are library labels; protein concentration not given here; high values mean tight binding

Row | Binder | binding signal
1 | B1 | 0.719 enrichment R
2 | B2 | 0.766 enrichment R
3 | B3 | 1.11 enrichment R
4 | B4 | 1.21 enrichment R
5 | B5 | 2.29 enrichment R
6 | B6 | 1.17 enrichment R
7 | B7 | 2.49 enrichment R
8 | B8 | 1.21 enrichment R
9 | B9 | 2.71 enrichment R
10 | B10 | 0.526 enrichment R
11 | B11 | 0.71 enrichment R
12 | B12 | 0.748 enrichment R
13 | B13 | 0.439 enrichment R
14 | B14 | 0.984 enrichment R
15 | B15 | 0.434 enrichment R
16 | B16 | 0.401 enrichment R
17 | B17 | 0.933 enrichment R
18 | B18 | 1.58 enrichment R
19 | B19 | 1.19 enrichment R
20 | B20 | 0.769 enrichment R
21 | B21 | 0.599 enrichment R
22 | B22 | 2.65 enrichment R
